Data published in the supplement of paper PMC6089552.
Hit rate of the full screen: of about 3,200 compounds, about 300 (9.4%) showed activity. The entries are a selection whose mix differs from that of the whole data set.

Tested on: A673/TR/shEF
Test: cell viability (LOESS-normalised, relative to median of negative controls) (log2 ratio); higher = more viable cells (less compound effect), active = hit call of the paper (over 3 MAD below the median)
Conditions: treatment time: 72 h
Method in brief: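 A673/TR/shEF Ewing sarcoma cells (1,500 per well, 384-well plates) were grown with or without doxycycline to induce EWS-FLI1 shRNA knockdown, starting 24 h before compounds. Library compounds at two or more concentrations, with DMSO controls, were added for three days. Cell viability was read by CellTiter-Glo luminescence on an Envision reader, then LOESS-corrected per plate, divided by the median of negative controls and log2-transformed. Hits were wells at least three median absolute deviations from the median of all screened wells.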

[1] = 0.25 µM, library screen: screen2, EWS-FLI1 expression: high (no doxycycline)
[2] = 0.25 µM, library screen: screen2, EWS-FLI1 expression: low (doxycycline-induced shRNA knockdown)
[3] = 2.5 µM, library screen: screen2, EWS-FLI1 expression: high (no doxycycline)
[4] = 2.5 µM, library screen: screen2, EWS-FLI1 expression: low (doxycycline-induced shRNA knockdown)
[5] = 0.25 µM, library screen: screen1, EWS-FLI1 expression: high (no doxycycline)
[6] = 0.25 µM, library screen: screen1, EWS-FLI1 expression: low (doxycycline-induced shRNA knockdown)
[7] = 2.5 µM, library screen: screen1, EWS-FLI1 expression: high (no doxycycline)
[8] = 2.5 µM, library screen: screen1, EWS-FLI1 expression: low (doxycycline-induced shRNA knockdown)
[9] = 0.103 µM, library screen: screen3, EWS-FLI1 expression: high (no doxycycline)
[10] = 0.103 µM, library screen: screen3, EWS-FLI1 expression: low (doxycycline-induced shRNA knockdown)
[11] = 0.308 µM, library screen: screen3, EWS-FLI1 expression: high (no doxycycline)
[12] = 0.308 µM, library screen: screen3, EWS-FLI1 expression: low (doxycycline-induced shRNA knockdown)
[13] = 0.926 µM, library screen: screen3, EWS-FLI1 expression: high (no doxycycline)
[14] = 0.926 µM, library screen: screen3, EWS-FLI1 expression: low (doxycycline-induced shRNA knockdown)
[15] = 2.8 µM, library screen: screen3, EWS-FLI1 expression: high (no doxycycline)
[16] = 2.8 µM, library screen: screen3, EWS-FLI1 expression: low (doxycycline-induced shRNA knockdown)
[17] = 8.3 µM, library screen: screen3, EWS-FLI1 expression: high (no doxycycline)
[18] = 8.3 µM, library screen: screen3, EWS-FLI1 expression: low (doxycycline-induced shRNA knockdown)
[19] = 25 µM, library screen: screen3, EWS-FLI1 expression: high (no doxycycline)
[20] = 25 µM, library screen: screen3, EWS-FLI1 expression: low (doxycycline-induced shRNA knockdown)

Measured: cell viability (log2)

COc1cc2c(cc1OC)-c1cc(=Nc3c(C)cc(C)cc3C)n(C)c(=O)n1CC2
inactive: [1] 0.196 | [2] 0.0633 | [3] 0.231 | [4] 0.0686

Cc1cccc(-n2ncc3c(N4CCOCC4)ncnc32)c1
inactive: [5] 0.0669 | [6] 0.0823 | [7] 0.13 | [8] 0.108

CC(C)CCC[C@@H](C)[C@H]1CC[C@H]2[C@@H]3CC[C@H]4C[C@H](O)CC[C@]4(C)[C@H]3CC[C@]12C
inactive: [5] 0.14 | [6] 0.0986 | [7] 0.118 | [8] 0.0759

CCOC(=O)[C@H](CCc1ccccc1)N[C@H]1CCc2ccccc2N(CC(=O)O)C1=O
inactive: [9] 0.00565 | [10] 0.0483 | [11] -0.00821 | [12] 0.00175 | [13] 0.0846 | [14] 0.0215 | [15] 0.0825 | [16] 0.0572 | [17] 0.0213 | [18] 0.0268 | [19] 0.0743 | [20] 0.12

O=C1CCC(c2ccc(-n3ccnc3)cc2)=NN1
inactive: [1] 0.143 | [2] 0.0315 | [3] 0.00333 | [4] 0.0434

CCNC(=O)N1CCN(CCCC(c2ccc(F)cc2)c2ccc(F)cc2)CC1
inactive: [1] 0.00858 | [2] 0.124 | [3] 0.161 | [4] 0.112

Fc1ccc(C(OCCCc2cnc[nH]2)c2ccc(F)cc2)cc1
inactive: [1] 0.0882 | [2] 0.119 | [3] 0.204 | [4] 0.117

CCC(=O)N1CCN(C(=O)c2ccccc2)CC1
inactive: [1] 0.205 | [2] 0.0729 | [3] 0.156 | [4] 0.0547

CC(C)(C)Cn1c(N)nc2ccc(-c3[nH]c(C(C)(C)C)nc3-c3ccc(F)cc3)nc21
inactive: [9] -0.0145 | [10] 0.0335 | [11] 0.0265 | [12] 0.0944 | [13] -0.0762 | [14] 0.0963 | [15] -0.0688 | [16] 0.0594 | [17] -0.0599 | [18] 0.0782 | [19] -0.113 | [20] 0.0298

CCCN[C@H]1CCc2nc(N)sc2C1
inactive: [9] -0.035 | [10] 0.0257 | [11] 0.0431 | [12] 0.0549 | [13] 0.0727 | [14] 0.0205 | [15] 0.00554 | [16] 0.0468 | [17] 0.0176 | [18] 0.0127 | [19] 0.142 | [20] 0.0265

Cc1cc(=O)oc2cc(O)ccc12
inactive: [5] 0.129 | [6] 0.0733 | [7] 0.103 | [8] -0.0344

CNC(=O)c1cc2c(cn1)[nH]c1ccccc12
inactive: [1] 0.143 | [2] 0.0456 | [3] 0.152 | [4] 0.0711

COc1ccc(CN(CCN(C)C)c2ccccn2)cc1
inactive: [5] 0.113 | [6] 0.0588 | [1] 0.219 | [2] 0.0808 | [7] 0.0854 | [8] 0.142 | [3] 0.163 | [4] 0.08

CCCNC(C)C(=O)Nc1ccccc1C (stereo unspecified)
inactive: [9] 0.187 | [10] 0.0075 | [5] 0.071 | [6] 0.00964 | [1] 0.214 | [2] 0.121 | [11] 0.0836 | [12] 0.0428 | [13] 0.107 | [14] 0.0769 | [7] 0.133 | [8] 0.124 | [3] 0.311 | [4] 0.0463 | [15] 0.0516 | [16] 0.0622 | [17] 0.0873 | [18] 0.0831 | [19] 0.0931 | [20] 0.0991

CC(COc1ccccc1)N(CCCl)Cc1ccccc1 (stereo unspecified)
inactive: [5] 0.0822 | [6] -0.0662 | [1] 0.0486 | [2] 0.125 | [7] 0.0683 | [8] -0.0725 | [3] 0.0773 | [4] 0.115

Nc1ncn([C@@H]2O[C@H](CO)[C@@H](O)[C@H]2O)c(=O)n1
active: 25 µM, library screen: screen2, EWS-FLI1 expression: high (no doxycycline) -0.117

CNc1ncnc2c1ncn2[C@H]1C[C@H](OP(=O)(O)O)[C@@H](COP(=O)(O)O)O1
inactive: [1] 0.145 | [2] 0.0774 | [3] 0.0134 | [4] 0.162

CCCCCCCCCCCCCCCCCCOP(=O)([O-])OC1CC[N+](C)(C)CC1
inactive: [9] -0.109 | [10] 0.00532 | [11] -0.0472 | [12] 0.0546 | [13] -0.0421 | [14] 0.00139 | [15] -0.0453 | [16] 0.00702 | [17] -0.104 | [18] -0.0117 | [19] -0.0902 | [20] -0.0236

CC(=O)c1ccc(S(=O)(=O)NC(=O)NC2CCCCC2)cc1
inactive: [1] 0.139 | [2] 0.0828 | [3] 0.0424 | [4] 0.105

CCSC(=N)N
inactive: [1] 0.16 | [2] 0.0173 | [3] 0.0858 | [4] 0.0148

O=C(N[C@@H](Cc1ccccc1)C(=O)CCl)OCc1ccccc1
active: [3] -0.218
inactive: [1] 0.163 | [2] 0.156 | [4] 0.0216

Cc1scc2c1N(C(=O)CN1CCN(C)CC1)c1ccccc1NC2=O
inactive: [1] 0.158 | [2] 0.101 | [3] 0.269 | [4] 0.0381

Cc1cc2c(cc1Cl)N(C(=O)Nc1ccc(Oc3cccnc3C)nc1)CC2
inactive: [1] 0.241 | [2] 0.0886 | [3] 0.111 | [4] 0.164

c1ccc(C2CN3CCSC3=N2)cc1 (stereo unspecified)
active: [7] -0.215 | 25 µM, library screen: screen1, EWS-FLI1 expression: high (no doxycycline) -0.261
inactive: 0.025 µM, library screen: screen1, EWS-FLI1 expression: high (no doxycycline) 0.0711 | 0.025 µM, library screen: screen1, EWS-FLI1 expression: low (doxycycline-induced shRNA knockdown) 0.0575 | [5] 0.0459 | [6] 0.00911 | [1] 0.102 | [2] 0.0185 | [8] 0.107 | [3] 0.166 | [4] 0.00181 | 25 µM, library screen: screen1, EWS-FLI1 expression: low (doxycycline-induced shRNA knockdown) 0.0697

CC(COc1ccc(/C=C/c2ccccc2)cc1)[N+](C)(C)C (stereo unspecified)
inactive: [1] 0.094 | [2] 0.0771 | [3] 0.0835 | [4] 0.0618

[O-]n1ccccc1=S.[O-]n1ccccc1=S.[Zn+2]
active: [7] -0.205
inactive: [5] 0.17 | [6] 0.0708 | [8] 0.0604

Cc1c2oc3c(C)ccc(C(=O)NC4C(=O)NC(C(C)C)C(=O)N5CCCC5C(=O)N(C)CC(=O)N(C)C(C(C)C)C(=O)OC4C)c3nc-2c(C(=O)NC2C(=O)NC(C(C)C)C(=O)N3CCCC3C(=O)N(C)CC(=O)N(C)C(C(C)C)C(=O)OC2C)c(N)c1=O (stereo unspecified)
active: [5] -4.25 | [6] -4.25 | [7] -4.23 | [8] -4.26

COc1cc2cc3c4cc(OC)c(OC)cc4cc[n+]3c(C)c2cc1OC
inactive: [5] 0.0489 | [6] -0.0198 | [7] 0.106 | [8] 0.097

Cc1ccc(Cl)c(Nc2ccccc2C(=O)O)c1Cl
inactive: [5] 0.134 | [6] 0.00203 | [1] 0.0256 | [2] 0.0859 | [7] 0.175 | [8] 0.051 | [3] 0.105 | [4] 0.198

O=C(NCCO[N+](=O)[O-])c1cccnc1
inactive: [9] -0.00596 | [10] 0.0478 | [11] 0.0526 | [12] -0.0187 | [13] 0.00281 | [14] 0.0527 | [15] 0.0528 | [16] 0.0439 | [17] 0.0599 | [18] 0.0714 | [19] 0.00797 | [20] 0.00363

CN(C)CCOc1ccc(/C(=C(/CCCl)c2ccccc2)c2ccccc2)cc1
inactive: [9] 0.104 | [10] 0.00126 | [11] 0.155 | [12] 0.127 | [13] 0.118 | [14] 0.144 | [15] 0.15 | [16] 0.15 | [17] 0.114 | [18] 0.116 | [19] 0.0665 | [20] 0.0889

CC(C(=O)O)c1ccc(N2Cc3ccccc3C2=O)cc1 (stereo unspecified)
inactive: [5] 0.0818 | [6] -0.025 | [7] 0.167 | [8] 0.0502

Oc1ccc(OCc2ccccc2)cc1
inactive: [9] 0.123 | [10] -0.0268 | [11] 0.0306 | [12] 0.0601 | [13] 0.0336 | [14] -0.0221 | [16] 0.0872 | [17] -0.00746 | [18] 0.0842 | [20] 0.0776
active: [15] -0.186 | [19] -0.212

CC(C)C1=CC2=CC[C@@H]3[C@](C)(CCC[C@@]3(C)C(=O)O)[C@H]2CC1
inactive: [5] 0.0502 | [6] 0.122 | [7] 0.133 | [8] 0.195

CCCn1c(=O)c2c(ncn2C)n(CCC)c1=O
inactive: [1] 0.0901 | [2] 0.0971 | [3] 0.0465 | [4] 0.0214

CCOc1cc(/C=C2\SC(=S)N(CCS(=O)(=O)O)C2=O)ccc1O
inactive: [5] -0.00487 | [6] 0.0852 | [7] 0.0865 | [8] 0.0812

C[C@H]1C[C@H]2[C@@H]3CCC4=CC(=O)C=C[C@]4(C)[C@@]3(F)[C@@H](O)C[C@]2(C)[C@@]1(O)C(=O)CO
inactive: [5] 0.0929 | [6] -0.0742 | [1] 0.0662 | [2] 0.0634 | [7] 0.134 | [8] -0.324 | [3] 0.0211 | [4] 0.104
